# PubChem BioAssay (Tox21)
# “And” between values parts separate entries of the source, which are not always exact repeats. Equal values may be shown once. Inconclusive means that the source gave no clear call. Such entries were picked first, then a sample of the others. For part of these data: Potencies of inconclusive entries are doubtful fits and often do not repeat. Some compounds were tested as several samples or in several runs, with calls that do not always agree. The source made the active and inactive calls. Unless noted, calls follow the shape of the dose curve; as a rule, active = well fitted curve in the direction sought with a large enough effect in the repeat runs; inconclusive = weak or mixed curves; inactive = no such curve, though single readings can be large; an effect the other way counts as inactive or inconclusive.
# Tests used:
# [1] = qHTS assay to identify small molecule antagonists of the retinoid acid receptor (RAR) signaling pathway - cell viability counter screen (AID 1159551); also: nearly all actives have a fitted effect of over 35% in size; also: potency is read from the fitted curve at half-maximal effect
# How it was run: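 ATP-based viability, C3RL4 cells, 6 h at 37 C with 1 uM final retinol co-added after compound; luminescence read 30 min post CellTiter-Glo, RT.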
# [2] = qHTS assay to identify small molecule agonists of the retinoic acid receptor (RAR) signaling pathway (AID 1159553); conditions: C3RL4 RARE luciferase reporter, agonist, 6 h; activation: at 73.3 µM (top of the series) unless noted; also: potency is read from the fitted curve at half-maximal effect; as to activation: % is scaled to controls: 0 for no effect and ±100 for the full control effect
# How it was run: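 Quantitative high-throughput format: the Tox21 10K library was tested on C3RL4 RARE-luciferase cells for 6 hr at 37 C and 5% CO2, with luminescence measured after a 30 min room-temperature reagent step.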
# [3] = qHTS assay to identify small molecule agonists of the constitutive androstane receptor (CAR) signaling pathway - cell viability counter screen (AID 1224836); also: potency is read from the fitted curve at half-maximal effect; nearly all actives have a fitted effect of over 45% in size
# How it was run: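 HepG2 cells stably carrying hCAR and a CYP2B6-2.2kb reporter were plated 4 h, then given compounds at 15 concentrations plus PK11195 (final 0.75 uM). After 23 h at 37 C, viability was read by CellTiter-Fluor fluorescence.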
# [4] = molecular target: Nuclear receptor subfamily 1 group I member 3 (Homo sapiens) (UniProt Q14994); test: qHTS assay to identify small molecule antagonists of the constitutive androstane receptor (CAR) signaling pathway (AID 1224838); also: potency is read from the fitted curve at half-maximal effect; nearly all actives have a fitted effect of over 40% in size
# UniProt Q14994, sequence (Q14994 whole entry, looked up): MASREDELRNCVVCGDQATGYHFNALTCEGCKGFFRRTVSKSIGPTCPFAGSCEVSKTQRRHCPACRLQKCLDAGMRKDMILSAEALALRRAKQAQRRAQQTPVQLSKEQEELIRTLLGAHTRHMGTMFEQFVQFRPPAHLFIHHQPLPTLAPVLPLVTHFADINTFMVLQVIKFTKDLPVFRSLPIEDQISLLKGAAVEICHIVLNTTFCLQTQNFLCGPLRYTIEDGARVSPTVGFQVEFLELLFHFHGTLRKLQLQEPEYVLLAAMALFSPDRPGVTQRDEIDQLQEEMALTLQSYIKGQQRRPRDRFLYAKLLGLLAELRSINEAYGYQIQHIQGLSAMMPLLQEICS
# How it was run: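 Luminescence from a CYP2B6-2.2kb promoter reporter in hCAR-expressing HepG2 cells reflects CAR signaling. Cells received compounds at 15 concentrations and 50 nM CITCO (final), then incubated 24 h at 37 C/5% CO2.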
# [5] = qHTS assay to identify small molecule antagonists of the estrogen related receptor signaling pathway with the pleiotropic PPARgamma coactivator (PGC) from Tox21 10K library - cell viability counter screen (AID 1224840; active = well fitted cell-killing curve with a large enough effect in the repeat runs, not every such curve was filed as active; inconclusive = weak or mixed curves, or effect the other way; inactive = no such curve, though single readings can be large or run the other way; also: nearly all actives have a fitted effect of over 40% in size; also: potency is read from the fitted curve at half-maximal effect)
# How it was run: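 Cell viability is measured by CellTiter-Fluor fluorescence in PGC/ERR cells that receive compounds after a 6-hour attachment period and are then incubated 17.5 hours at 37 C.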
# [6] = molecular target: Thyrotropin receptor (Homo sapiens) (UniProt P16473); test: qHTS assay to identify small molecule agonists of the thyroid stimulating hormone receptor (TSHR) signaling pathway (AID 1224843; calls by dose curve; also: nearly all actives have a fitted effect of over 45% in size; also: potency is read from the fitted curve at half-maximal effect; as to activation: % is scaled to controls: 0 for no effect and ±100 for the full control effect); conditions: TSHR-HEK293 cells, cAMP HTRF, agonist mode, 30 min; activation: at 92.4 µM (top of the series) unless noted
# UniProt P16473, sequence (P16473 whole entry, looked up): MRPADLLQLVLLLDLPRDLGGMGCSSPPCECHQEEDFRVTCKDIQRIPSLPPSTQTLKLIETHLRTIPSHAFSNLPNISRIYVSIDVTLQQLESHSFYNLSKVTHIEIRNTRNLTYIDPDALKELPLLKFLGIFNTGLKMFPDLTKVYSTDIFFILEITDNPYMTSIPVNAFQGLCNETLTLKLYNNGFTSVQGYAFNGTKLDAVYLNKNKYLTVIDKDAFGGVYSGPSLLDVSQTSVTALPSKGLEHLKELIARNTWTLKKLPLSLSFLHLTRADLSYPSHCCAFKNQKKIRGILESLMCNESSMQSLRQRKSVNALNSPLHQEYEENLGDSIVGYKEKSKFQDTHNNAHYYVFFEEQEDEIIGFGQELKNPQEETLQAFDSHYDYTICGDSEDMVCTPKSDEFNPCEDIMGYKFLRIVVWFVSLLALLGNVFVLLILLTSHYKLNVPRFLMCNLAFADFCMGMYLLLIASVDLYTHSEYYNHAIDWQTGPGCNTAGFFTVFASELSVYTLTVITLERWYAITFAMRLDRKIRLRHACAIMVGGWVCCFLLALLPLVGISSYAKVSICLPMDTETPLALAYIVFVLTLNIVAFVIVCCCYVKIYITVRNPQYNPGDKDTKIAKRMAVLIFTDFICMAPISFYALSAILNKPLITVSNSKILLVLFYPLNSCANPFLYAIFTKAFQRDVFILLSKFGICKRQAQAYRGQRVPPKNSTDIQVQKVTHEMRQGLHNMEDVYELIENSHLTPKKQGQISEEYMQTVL
# How it was run: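 A cell-based cAMP HTRF format was run in TSHR-transfected HEK293 cells, 800 per well. Treatment: 30 min, room temperature. Detection: 1 h with labelled cAMP and anti-cAMP cryptate. Concentration-response over 15 points, three replicates.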
# [7] = qHTS assay to identify small molecule antagonists of the estrogen related receptor (ERR) signaling pathway from Tox21 library - cell viability counter screen (AID 1224834); also: nearly all actives have a fitted effect of over 30% in size; also: potency is read from the fitted curve at half-maximal effect
# How it was run: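 Compounds in DMSO were pinned onto ERR cells that had been incubated for 6 h, and the plates were held at 37 C for 17.5 h. CellTiter-Fluor reagent was then added and fluorescence was measured after 30 min.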
# [8] = qHTS assay to identify small molecule agonists of the hypoxia (HIF-1) signaling pathway - cell viability counter screen (AID 1224844; calls by dose curve; also: nearly all actives have a fitted effect of over 50% in size; also: potency is read from the fitted curve at half-maximal effect)
# How it was run: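 Viability counter screen: HRE-bla ME-180 cells plated 5 hrs before compound addition, treated 17 hrs at 37C and 5% CO2, then CellTiter-Glo added after the FRET reporter read; luminescence after 30 min.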
# [9] = molecular target: Luciferin 4-monooxygenase (Photinus pyralis) (UniProt P08659); test: qHTS assay to identify small molecule inhibitors of firefly luciferase (AID 1224835); also: potency is read from the fitted curve at half-maximal effect; nearly all actives have a fitted effect of over 25% in size
# UniProt P08659, sequence (P08659 whole entry, looked up): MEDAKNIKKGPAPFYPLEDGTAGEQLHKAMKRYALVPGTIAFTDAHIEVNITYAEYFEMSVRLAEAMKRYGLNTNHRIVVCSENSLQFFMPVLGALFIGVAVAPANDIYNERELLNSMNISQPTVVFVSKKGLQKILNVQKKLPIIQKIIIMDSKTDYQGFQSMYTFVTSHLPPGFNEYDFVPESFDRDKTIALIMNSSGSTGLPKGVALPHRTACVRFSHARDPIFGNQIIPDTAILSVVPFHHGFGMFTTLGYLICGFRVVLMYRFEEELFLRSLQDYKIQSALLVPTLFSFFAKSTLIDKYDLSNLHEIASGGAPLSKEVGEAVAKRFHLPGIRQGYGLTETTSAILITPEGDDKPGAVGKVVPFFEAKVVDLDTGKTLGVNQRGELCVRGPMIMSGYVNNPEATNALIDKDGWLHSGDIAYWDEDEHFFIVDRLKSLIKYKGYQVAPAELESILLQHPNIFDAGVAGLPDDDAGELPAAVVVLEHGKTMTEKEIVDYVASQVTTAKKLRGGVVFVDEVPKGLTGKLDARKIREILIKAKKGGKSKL
# How it was run: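 Inhibition of purified Photinus luciferase is measured by luminescence. Substrate levels (D-luciferin, ATP) sit at their KM values. Each compound is tested in a concentration series.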
# [10] = molecular target: Nuclear receptor subfamily 1 group I member 3 (Homo sapiens) (UniProt Q14994); test: qHTS assay to identify small molecule agonists of the constitutive androstane receptor (CAR) signaling pathway (AID 1224839); also: nearly all actives have a fitted effect of over 15% in size; also: potency is read from the fitted curve at half-maximal effect;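 as to activation: HepG2 cells stably carrying human CAR and a CYP2B6 luciferase reporter; % is scaled to controls: 0 for no effect and ±100 for the full control effect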
# How it was run: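 HepG2 cells stably expressing hCAR and a CYP2B6-2.2kb luciferase reporter were treated with compounds at 15 concentrations plus 0.75 uM PK11195 (final) for 24 h at 37 C; luminescence was read after ONE-Glo addition.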
# [11] = qHTS assay to identify small molecule antagonists of the constitutive androstane receptor (CAR) signaling pathway - cell viability counter screen (AID 1224837); also: potency is read from the fitted curve at half-maximal effect; nearly all actives have a fitted effect of over 45% in size
# How it was run: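 Cells are seeded, rested 4 hr at 37 C/5% CO2, dosed with compound (15-point series) and 50 nM CITCO, incubated a further 23 hr, and then CellTiter-Fluor reagent is added before fluorescence is read. The line is HepG2 with stable hCAR and CYP2B6-2.2kb.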
# [12] = qHTS assay to identify small molecule antagonists of the estrogen related receptor signaling pathway with the pleiotropic PPARgamma coactivator (PGC) from Tox21 10K library (AID 1224841; call rule not given here; also: actives are mostly falling curves and most rising ones were filed inactive; nearly all actives have a fitted effect of over 50% in size; also: potency is read from the fitted curve at half-maximal effect)
# How it was run: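 Cells stably carrying the PGC/ERR reporter, seeded at 2,000 per well, received pin-transferred compounds 6 h post-plating. Exposure lasted 18 h at 37 C. Signal: One-Glo luminescence.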
# [13] = qHTS assay to identify small molecule antagonists of the estrogen related receptor (ERR) signaling pathway (AID 1224819;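 also: luminescence from an ERR-driven luciferase reporter measured with One-Glo reagent; % is scaled to controls: 0 for no effect and ±100 for the full control effect; nearly all actives have a fitted effect of over 50% in size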)
# How it was run: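 ERR reporter cell line (NTP) plated at 2,000 cells/well, settled 6 h at 37C/5% CO2, then exposed to LOPAC compounds for 18 h at 37C. One-Glo luciferase luminescence read after 30 min at room temperature.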
# Tags tell the direction and shape of the fitted curve or compound fluorescence and quenching.
compound,measurement,setting,value
CCN(CC)c1ccc(N)cc1,Potency,[1],"inconclusive: 70.5 µM [cytotoxic, single point]"
same,Potency,[2],active: 3.15 µM
same,Potency,[3],active: 31.5 µM
same,Potency,[4],active: 62.8 µM
same,Potency,[5],active: 25 µM
same,activation,[6],inconclusive: 4.5%
Cc1cc(O)c(C(C)C)cc1Cl,Potency,[1],"inconclusive: 68.6 µM [cytotoxic, single point]"
same,activation,[2],inconclusive: -6.81% [phenotype inactive]
same,Potency,[7],inactive
same,Potency,[6],"inconclusive: 6.11 µM [inhibitor, full curve, poor fit]"
C=CC(=O)OCCOCCOCCOCCOC(=O)C=C,Potency,[1],"inconclusive: 30.8 µM [rising, partial curve] and inconclusive: 27.1 µM [rising, partial curve]"
same,Potency,[2],active: 19.4 µM and active: 17.1 µM
same,Potency,[7],active: 30.8 µM and active: 24.1 µM
same,Potency,[3],active: 54.8 µM and active: 60.6 µM
same,Potency,[4],"inconclusive: 68 µM [inhibitor, single point]"
same,Potency,[5],active: 27.4 µM and active: 27.1 µM
same,Potency,[8],"inconclusive: 62 µM [cytotoxic, single point] and inconclusive: 30.6 µM [cytotoxic]"
c1ccc2c(c1)CCc1ccccc1N2,Potency,[1],"inconclusive: 43.5 µM [cytotoxic, partial curve, poor fit]"
same,Potency,[2],"inconclusive: 26.6 µM [activator, partial curve, poor fit]"
same,Potency,[9],"inconclusive: 27.5 µM [inhibitor, partial curve]"
same,Potency,[3],"inconclusive: 13.3 µM [cytotoxic, single point]"
same,Potency,[10],"inconclusive: 33.5 µM [activator, single point]"
same,Potency,[6],"inconclusive: 48.8 µM [activator, partial curve]"
Oc1ccc(Cl)cc1Cc1cc(Cl)ccc1O,Potency,[1],"inconclusive: 55.5 µM [cytotoxic, partial curve] and inconclusive: 34.4 µM [cytotoxic, partial curve, poor fit] and inconclusive: 33.5 µM [cytotoxic, partial curve, poor fit]"
same,Potency,[3],"inconclusive: 69.8 µM [cytotoxic, single point] and inconclusive: 61.1 µM [cytotoxic, single point]"
same,Potency,[11],inconclusive: 62.3 µM [cytotoxic] and inconclusive: 68.6 µM [cytotoxic]
same,Potency,[4],"inconclusive: 69.8 µM [inhibitor, single point] and inconclusive: 77 µM [inhibitor, single point] and inconclusive: 33.5 µM [inhibitor, partial curve]"
same,Potency,[5],"active: 24.8 µM and inconclusive: 30.6 µM [cytotoxic, partial curve] and inconclusive: 29.8 µM [cytotoxic]"
same,Potency,[8],"inconclusive: 55.9 µM [cytotoxic, single point]"
CC[C@H](c1ccc(O)cc1)[C@@H](CC)c1ccc(O)cc1,Potency,[1],inconclusive: 68.6 µM [cytotoxic]
same,Potency,[7],"inconclusive: 37.6 µM [cytotoxic, single point]"
same,Potency,[10],"inconclusive: 17.2 µM [activator, partial curve] and inconclusive: 13.3 µM [activator, partial curve]"
same,Potency,[5],"inconclusive: 54.5 µM [cytotoxic, partial curve]"
O=C(Nc1cccc(C(F)(F)F)c1)c1cc(Br)cc(Br)c1O,Potency,[1],"inconclusive: 6.86 µM [cytotoxic, full curve, poor fit]"
same,Potency,[3],"inconclusive: 7.7 µM [cytotoxic, full curve]"
same,Potency,[11],"inconclusive: 9.69 µM [cytotoxic, full curve]"
same,Potency,[5],active: 6.86 µM
same,Potency,[8],active: 19.5 µM
O=c1n(CC2CO2)c(=O)n(CC2CO2)c(=O)n1CC1CO1 (centres undefined),Potency,[1],"inconclusive: 34.2 µM [rising, partial curve, poor fit]"
same,Potency,[11],active: 60.8 µM and active: 54.5 µM
same,Potency,[10],"inconclusive: 24.3 µM [activator, single point]"
same,Potency,[5],"inconclusive: 43 µM [cytotoxic, partial curve] and inconclusive: 54.5 µM [cytotoxic, partial curve]"
same,Potency,[8],inconclusive: 49 µM [cytotoxic]
c1ccc2[nH]ccc2c1,Potency,[1],inactive
same,Potency,[12],active: 2.69 µM and inactive
same,Potency,[8],active: 17.1 µM and inactive
CCN(CC)CCOC(=O)c1ccc(N)cc1,Potency,[1],inactive
same,Potency,[13],inactive
same,Potency,[10],inactive
CCCCCCCCCCCCN,Potency,[1],active: 68.6 µM
same,Potency,[9],"inconclusive: 71 µM [inhibitor, partial curve, poor fit]"
same,Potency,[4],"inconclusive: 68.6 µM [inhibitor, single point]"
same,Potency,[5],inactive and active: 12.2 µM
same,Potency,[8],"inconclusive: 54.9 µM [cytotoxic, single point]"
